Reference: the supplement of paper PMC12217912
The other results are listed elsewhere or left out. The full chains were built here from the parent and the listed change. Inactive controls read about 0.05.

B1: TEV protease; numbered along this chain (parent)
chain: MGESLFKGPRDYNPISSSICHLTNESDGHTTSLYGIGFGPFIITNKHLFRRNNGTLVVQSLHGVFKVKDTTTLQQHLVDGRDMIIIRMPKDFPPFPQKLKFREPQREERICLVTTNFQTKSMSSMVSDTSCTFPSGDGIFWKHWIQTKDGQCGSPLVSTRDGFIVGIHSASNFTNTNNYFTSVPKNFMELLTNQEAQQWVSGWRLNADSVLWGGHKVFMVKPEEPFQPVKEATQL

Variants of: B1
Test: raw area under fraction-flipped curve 0-4 h after induction (AUC4h, not background-subtracted), DNA-recorder readout of cleavage of the substrate (dimensionless); higher = more cleavage of the substrate by the protease variant
Details: temperature: 34 °C; time window: 0-4 h after rhamnose induction
Method: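 In vivo DNA recorder in E. coli TOP10(DE3) ΔrhaA at 34 °C. Each TEVp single-site mutant (parent TEVp 0) is paired with a single-site variant of the 7-mer TEVs (canonical ENLYFQ|S). The substrate sits between flexible linkers in a Bxb1-sfGFP-TEVs-SsrA fusion, so cleavage stabilises Bxb1 and speeds flipping of a recombination array, read by NGS. The value is the raw area under the fraction-flipped curve over 0-4 h after rhamnose induction (AUC4h), with ≥20 reads per time point. It is not background-subtracted; inactive controls average about 0.047.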
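Further: Bxb1 expression induced with 0.2% (w/v) L-rhamnose at OD600 near 0.5, cultures sampled hourly, flipped fraction per protease–substrate barcode pair counted by paired-end Illumina sequencing.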

| Variant | area with substrate ENLYAQS | area with substrate ENLYDQS | area with substrate ENLYEQS | area with substrate ENLYHQS | area with substrate ENLYIQS | area with substrate ENLYNQS | area with substrate ENLYPQS | area with substrate ENLYQQS | area with substrate ENLYRQS | area with substrate ENLYYQS | area with substrate ENLYGQS | area with substrate ENLYKQS | area with substrate ENLYLQS | area with substrate ENLYMQS | area with substrate ENLYSQS | area with substrate ENLYVQS | area with substrate ENLYWQS | area with substrate ENLYTQS | area with substrate ENLYCQS |
| --- | --- | --- | --- | --- | --- | --- | --- | --- | --- | --- | --- | --- | --- | --- | --- | --- | --- | --- | --- |
| H76M | 0.0898 | 0.0815 | 0.0669 | 0.0809 | 0.131 | 0.0765 | 0.0716 | 0.0254 | 0.075 | 0.0341 | – | – | – | – | – | – | – | – | – |
| H76W | 0.0648 | 0.0541 | 0.0664 | 0.0594 | – | 0.0567 | 0.0627 | 0.0601 | 0.047 | 0.0656 | 0.0684 | 0.0706 | 0.0712 | 0.0751 | 0.0455 | 0.0941 | 0.0727 | – | – |
| D79F | 0.0761 | 0.0699 | – | – | – | – | 0.069 | – | 0.0765 | 0.0748 | – | – | – | 0.0927 | 0.0517 | 0.0828 | 0.0784 | 0.0752 | – |
| I84S | 0.071 | 0.0618 | 0.0711 | 0.0571 | 0.0702 | 0.0566 | 0.0552 | 0.0622 | 0.0588 | 0.0625 | 0.0622 | 0.0583 | 0.0657 | 0.0884 | 0.0694 | 0.104 | – | 0.0589 | 0.0608 |
| I85T | 0.0584 | 0.0454 | 0.0532 | 0.0607 | – | 0.0647 | – | – | – | – | – | 0.0439 | 0.0581 | 0.0616 | 0.0663 | 0.0841 | 0.0607 | – | 0.01 |
| R87H | 0.079 | 0.0356 | 0.0805 | 0.0859 | – | 0.0652 | 0.0644 | – | – | 0.0706 | 0.0596 | 0.0478 | – | 0.0755 | 0.0703 | 0.103 | 0.0899 | – | 0.0927 |
| P89Y | 0.0512 | – | 0.0658 | 0.0574 | 0.062 | 0.0421 | 0.0563 | – | 0.0285 | 0.0437 | 0.0432 | 0.0551 | – | 0.0621 | – | 0.0744 | 0.0248 | 0.0691 | – |
| K90G | 0.0747 | 0.0596 | – | – | 0.112 | 0.041 | 0.0651 | 0.0667 | – | – | 0.0569 | 0.0674 | – | – | – | – | 0.0942 | 0.0806 | – |
| K90V | 0.0632 | 0.0485 | 0.0754 | 0.0579 | – | 0.0621 | 0.0785 | 0.0762 | 0.0762 | – | 0.0683 | – | – | 0.0625 | 0.0617 | 0.123 | 0.0728 | 0.0537 | – |
| P94T | 0.0775 | 0.061 | 0.0619 | 0.082 | – | 0.0576 | – | 0.0649 | 0.0248 | – | – | 0.0737 | 0.0943 | 0.0991 | – | – | 0.0884 | – | 0.0853 |
| P94W | 0.0803 | 0.0621 | 0.0659 | 0.0924 | 0.126 | 0.0723 | 0.073 | 0.0572 | 0.053 | 0.0914 | 0.065 | 0.0638 | 0.0848 | 0.0788 | 0.0678 | – | 0.0835 | 0.0773 | – |
| L99R | 0.0755 | 0.0802 | 0.0657 | 0.0544 | – | 0.0821 | 0.104 | 0.0505 | – | 0.0709 | 0.0901 | – | 0.0682 | 0.0719 | 0.0563 | 0.1 | 0.0691 | 0.0651 | – |
| L99Y | 0.0589 | – | 0.0679 | 0.0519 | 0.0797 | 0.0584 | 0.0751 | 0.0361 | 0.0659 | – | 0.0555 | 0.0231 | – | 0.0568 | 0.0698 | – | 0.0745 | 0.0707 | – |
| K100G | 0.0708 | 0.0371 | 0.0702 | – | – | 0.0666 | 0.0813 | 0.0496 | 0.0662 | – | 0.0783 | 0.0661 | 0.0822 | 0.0768 | – | 0.112 | 0.0834 | – | 0.1 |
| F101V | 0.0424 | 0.048 | 0.04 | 0.0467 | – | – | – | – | 0.0417 | – | 0.037 | 0.0355 | – | – | – | – | – | 0.0573 | – |
| R102M | 0.0733 | 0.0417 | 0.0614 | 0.0465 | – | 0.0541 | 0.042 | 0.0671 | 0.0526 | 0.0369 | 0.0278 | 0.0488 | – | 0.0565 | – | 0.0605 | 0.0499 | 0.0635 | – |
| E103T | 0.0334 | – | 0.0662 | 0.0659 | – | 0.0709 | – | 0.0541 | 0.0493 | – | 0.0626 | 0.0533 | – | 0.0807 | 0.0785 | 0.0589 | – | – | 0.0703 |
| I110K | 0.0475 | 0.0589 | 0.0625 | 0.0604 | 0.0563 | – | 0.0533 | 0.0511 | 0.0481 | – | – | 0.0459 | 0.059 | 0.0544 | 0.0539 | 0.063 | 0.0558 | – | – |
| C111D | 0.0589 | 0.0444 | 0.0667 | 0.0587 | 0.0593 | 0.0607 | 0.0529 | 0.0585 | 0.066 | – | 0.0735 | 0.0565 | 0.0537 | 0.0648 | 0.0505 | – | 0.065 | 0.0719 | – |
| V113S | 0.0559 | 0.0591 | 0.0612 | 0.0723 | – | 0.057 | – | 0.0467 | 0.0572 | – | – | 0.0609 | 0.0677 | 0.0594 | – | 0.0753 | – | 0.0667 | – |
| T114R | 0.0904 | 0.0626 | 0.0719 | 0.092 | – | 0.0769 | – | – | – | 0.0671 | 0.0782 | 0.0706 | 0.0603 | 0.0826 | 0.0942 | 0.105 | 0.115 | 0.0794 | 0.0796 |
| T115Y | 0.0689 | 0.0806 | 0.0751 | 0.0684 | – | – | 0.0528 | 0.0423 | 0.0645 | 0.0657 | – | – | – | – | 0.0775 | – | 0.0468 | – | – |
| N116P | 0.066 | 0.0447 | 0.0669 | 0.059 | – | – | 0.0715 | 0.0709 | 0.0685 | – | 0.0649 | 0.0803 | 0.0799 | 0.0702 | 0.0832 | 0.085 | 0.0836 | – | – |
| F117E | 0.0704 | 0.0685 | 0.0604 | 0.0675 | 0.117 | 0.0911 | 0.0648 | 0.0662 | 0.0691 | – | – | 0.0252 | – | 0.0811 | 0.0884 | 0.105 | 0.0823 | – | 0.0949 |
| Q118Y | 0.0762 | 0.0441 | 0.0656 | 0.0768 | 0.116 | 0.0689 | – | 0.0725 | 0.0715 | – | – | – | – | 0.0461 | – | – | 0.0744 | 0.0807 | – |
| S121I | 0.0891 | 0.0615 | 0.101 | 0.062 | 0.117 | 0.0712 | 0.0717 | – | 0.0517 | 0.0544 | 0.0736 | 0.07 | – | 0.0728 | 0.0726 | 0.149 | 0.0786 | 0.0642 | – |
